The record followed here is publication PMC6919601, “Identification of Plasmodium dipeptidyl aminopeptidase allosteric inhibitors by high throughput screening” (PLoS ONE, 2019).

Where “and” joins values, the source holds several entries; their conditions need not be identical. Equal entries are not always repeated. About 230 (0.21%) of roughly 110,000 compounds showed an effect of 50% or more. The list shows a part of the results.
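Further: 30 min substrate incubation versus DMSO and 10 µM JCP410 controls.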

Chain of DPAP1 (Q8IIJ9 whole entry, looked up): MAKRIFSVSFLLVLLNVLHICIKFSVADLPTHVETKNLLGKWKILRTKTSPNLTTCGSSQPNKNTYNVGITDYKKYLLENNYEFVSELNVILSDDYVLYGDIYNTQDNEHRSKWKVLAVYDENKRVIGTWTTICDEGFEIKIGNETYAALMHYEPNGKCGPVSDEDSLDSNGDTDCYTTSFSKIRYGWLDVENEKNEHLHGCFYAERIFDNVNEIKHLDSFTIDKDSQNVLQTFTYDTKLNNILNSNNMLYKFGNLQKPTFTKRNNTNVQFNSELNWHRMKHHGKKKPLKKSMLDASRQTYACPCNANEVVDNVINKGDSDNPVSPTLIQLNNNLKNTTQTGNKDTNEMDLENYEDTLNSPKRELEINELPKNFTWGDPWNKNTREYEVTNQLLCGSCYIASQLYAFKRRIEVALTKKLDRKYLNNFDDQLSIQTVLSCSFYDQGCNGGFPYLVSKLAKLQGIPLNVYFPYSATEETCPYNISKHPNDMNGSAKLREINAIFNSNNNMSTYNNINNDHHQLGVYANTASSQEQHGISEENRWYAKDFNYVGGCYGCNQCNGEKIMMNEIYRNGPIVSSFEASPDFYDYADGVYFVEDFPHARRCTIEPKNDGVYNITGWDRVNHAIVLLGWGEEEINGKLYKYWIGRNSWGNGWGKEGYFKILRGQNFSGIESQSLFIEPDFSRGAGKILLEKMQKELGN

This experiment has as its target DPAP1 (Plasmodium falciparum, UniProt Q8IIJ9). Nature of the experiment: primary screen, percent inhibition; read by cleavage of a fluorogenic dipeptide substrate; higher = more effect of the substance. The arrangement: species or system P. falciparum D10 trophozoite lysates; single well.
With `COc1ccc(/C=C/C2=NC(=C\c3cccc(OC)c3)/C(=O)O2)cc1`, the “% Inhibition @ 10 uM” value came to 1.28%.

Take `O=C(CNS(=O)(=O)c1ccc(Br)cc1)Nc1cccc(F)c1`: the “% Inhibition @ 10 uM” value turned out to be 14.3%. Regarding `COCCNc1cnn(C23CC4CC(CC(C4)C2C(=O)O)C3)c(=O)c1Cl` (stereo not shown), the “% Inhibition @ 10 uM” value was found to be 12.7%. In the case of `CC1CC(=O)Nc2cc([N+](=O)[O-])ccc2N1` (stereo not shown) it was 2.23%; in that of `O=C(NCc1cccs1)c1cnn2c1NC(c1cccs1)CC2C(F)(F)F` (stereo not shown), -1.37%; in that of `O=C(NC1CCN(Cc2ccccc2)CC1)c1ccc(Br)cc1`, 4.55%. In the case of `O=C1c2ccccc2C(O)(Cc2ccccc2)N1CC(O)c1ccccc1` (stereo not shown) it was -3.71%; in that of `Nc1cc(O)nc(SCC(=O)c2ccc(O)c(O)c2)n1`, -11.3%. As to `Cc1ccc2oc(C(=O)Nc3nnc(C(C)C)s3)cc(=O)c2c1`, the “% Inhibition @ 10 uM” value is 18.2%. In the case of `CC1CCN(C(=O)CN(C)S(=O)(=O)c2ccc3[nH]c4c(c3c2)CCCC4)CC1` it was 0.141%. In the case of `CC1(C)CC(n2nc(O)c3c2NC(=O)CSC3c2ccc3c(c2)OCO3)CCO1` (stereo not shown) it was 6.01%. On to `COCCCN1C(=O)S/C(=C/c2ccc(OC)c(O)c2)C1=O`, for which the “% Inhibition @ 10 uM” value is on record as 0.709%. The same measure for `CC1(C)CC(=O)C2=C(C1)OC(N)=C(C#N)C2C1CC=CCC1` (stereo not shown): 2.22%. In the case of `COCCN1Cc2cccc(C(=O)NC(C)c3cccs3)c2C1=O` (stereo not shown), the “% Inhibition @ 10 uM” value was -2.29%. Regarding `CSCC[C@H](NC(=O)OCc1ccccc1)C(=O)O`, the “% Inhibition @ 10 uM” value came out at 1.97%.

`O=C(NC1CCCCC1)C1CCCN1S(=O)(=O)c1cccc2nsnc12` (stereo not shown): the “% Inhibition @ 10 uM” value is given as 1.26%. In the case of `O=c1c2c3c(sc2nnn1CCCOc1ccccc1)CCCC3`, the “% Inhibition @ 10 uM” value was 2.41%.

`Cc1cccc(OCC(=O)NCc2ccccc2)c1`: the “% Inhibition @ 10 uM” value is listed as -2.03%. As to `CCCSc1nsc(SCCC)c1C(=O)O`, the “% Inhibition @ 10 uM” value turned out to be 0.51%. With `COc1cc(CN2CCC(C)CC2)cc(OC)c1`, the “% Inhibition @ 10 uM” value is listed as -4.75%.

As for `COc1ccc(S(=O)(=O)n2cnc3cc(C)c(C)cc32)cc1`, the “% Inhibition @ 10 uM” value was -0.142%.

Take `Cn1c(SCC(=O)NCc2ccccc2)nc2c(c1=O)SCC2`: the “% Inhibition @ 10 uM” value is recorded as 0.205%. Take `Cn1c(=O)c2c(nc(N3CCCCC3)n2CC(=O)c2ccccc2)n(C)c1=O`: the “% Inhibition @ 10 uM” value was -0.173%. On to `c1ccc2c(Oc3ncnc4sc5c(c34)CCCC5)cccc2c1`, for which the “% Inhibition @ 10 uM” value is given as -4.08%. `Cc1cc(-c2ccccc2)n2nc(-c3ccc(Cl)cc3)cc2n1`: the “% Inhibition @ 10 uM” value is recorded as 3.16%. As for `CCOC(=O)c1c(NC(=O)CSc2nnc(C(F)(F)F)n2N)sc2c1CCC2`, the “% Inhibition @ 10 uM” value is -8.85%. In the case of `CN(CC(=O)Nc1nccs1)S(=O)(=O)c1cccc2nsnc12` it was -3.46%. Consider `CC(=O)N(C1=C(N2CCNCC2)C(=O)c2ccccc2C1=O)c1ccc(Br)cc1`, for which the “% Inhibition @ 10 uM” value was found to be 36.5%. The same measure for `CC(C)C[C@H](NC(=O)c1ccc(NC(=O)OCCCc2ccncc2)cc1)C(=O)NCC#N`: -9.15%; for `Cc1ccccc1Cn1cc(NC(=O)c2cc(-c3ccc(F)cc3)on2)cn1`: 0.723%; for `Cc1ccc(Cn2c(CN3CCN(C)CC3)nc3c2c(=O)n(C)c(=O)n3C)cc1`: -0.499%. In the case of `COc1ccc(Cl)cc1C(=O)Nc1ccc2c(c1)C(=O)N(CC(C)C)C2=O` it was -2.32%. For the compound `CN(Cc1ccccc1)C(=O)c1ccc([N+](=O)[O-])o1`, the “% Inhibition @ 10 uM” value is reported as 2.6%.

Regarding `Clc1cccc(CSc2nc3cccnc3[nH]2)c1`, the “% Inhibition @ 10 uM” value was 1.93%. The same measure for `Cc1nn(-c2cccc(Cl)c2)c2c1C(c1ccccc1F)C(C#N)=C(N)O2` (stereo not shown): -2.45%. On to `N#C/C(=C\c1ccccc1[N+](=O)[O-])c1nc(-c2ccc(Br)cc2)cs1`, for which the “% Inhibition @ 10 uM” value is listed as 4.33%. The same measure for `COc1cc(Oc2ccccc2)nc(N)n1`: 5.43%; for `O=S(c1c(O)nc2ccccc2c1O)C1CCCCC1` (stereo not shown): 2.32%; for `Cc1c(Cl)ccc(S(=O)(=O)NCCOC23CC4CC(CC(C4)C2)C3)c1Cl`: 2.18%. Turning to `Cn1ncc2c(NCCc3ccc(S(N)(=O)=O)cc3)ncnc21`, the “% Inhibition @ 10 uM” value was determined as 2.72%.

With `CC(NC(=O)CSc1nnnn1-c1ccccc1F)C12CC3CC(CC(C3)C1)C2` (stereo not shown), the “% Inhibition @ 10 uM” value came out at 4.31%. On to `COCCCn1c(=O)c2sccc2n2c(CCCC(=O)NCCc3ccc(Cl)cc3)nnc12`, for which the “% Inhibition @ 10 uM” value was -5.35%. The same measure for `CC(=O)c1cccc(NC2=NS(=O)(=O)c3ccccc32)c1`: -1.26%.

On to `O=C1CSCC2=C1C(=O)CC1c3ccccc3CCN21` (stereo not shown), for which the “% Inhibition @ 10 uM” value is recorded as -2.8%. In the case of `CC(=O)c1ccc(NC(=O)C2CC=CCC2C(=O)OCC2CCCO2)cc1` (stereo not shown) it was -1.91%. On to `COc1ccc(OC)c(C2C=C(c3cccc(Br)c3)Nc3ncnn32)c1` (stereo not shown), for which the “% Inhibition @ 10 uM” value is recorded as -7.08%. The same measure for `Nc1ncnc2[nH]c(SCc3nc4ccccc4n3Cc3ccccc3)nc12`: -4.02%; for `Cc1nnc2c(N3CCC(Cc4ccccc4)CC3)nc3ccccc3n12`: -3.41%; for `COc1ccc(OC)c(NC(=O)c2ccccc2C(=O)O)c1`: -6.67%. In the case of `O=C(Nc1ccc(Cl)cc1C(=O)N1CCCC1)c1ccco1` it was 3.8%; in that of `COc1ccc(-n2c(Cc3cccn3C)nnc2SCC(=O)NCCc2ccccc2)cc1`, 1.15%; in that of `Clc1ccc(-c2nc3sc4nc5ccccc5nc4n3n2)c(Cl)c1`, 5.5%. Regarding `CN(CCC#N)C(=O)c1noc2c1COc1ccccc1-2`, the “% Inhibition @ 10 uM” value was 1.68%.

On to `CC(C)(C)c1nnc(NC(=O)c2ccccc2Cl)s1`, for which the “% Inhibition @ 10 uM” value is recorded as -1.19%. The same measure for `COc1cccc(C(=O)COc2ccccc2N2C(=O)c3ccccc3C2=O)c1`: -0.473%. On to `Cc1nc2nc(SCC(=O)NC(C)c3ccccc3)nn2c(C)c1Cc1ccccc1` (stereo not shown), for which the “% Inhibition @ 10 uM” value is on record as 2.83%. Take `Cc1cc(/C=C2/NC(=O)N(c3ccccc3)C2=O)c(C)n1-c1ccc2c(c1)OCO2`: the “% Inhibition @ 10 uM” value is reported as -5.3%. In the case of `CCN1CCN(Cc2ccc(F)c(F)c2)CC1`, the “% Inhibition @ 10 uM” value is -6.21%. Consider `OCCN1CCN(CC(O)c2ccc(C3CCCC3)cc2)CC1` (stereo not shown), for which the “% Inhibition @ 10 uM” value is -1.91%. The same measure for `O=c1n(-c2ccccc2)c(=O)n2n1C1C3C4C5C3C2C5C41` (stereo not shown): 0.661%; for `COc1ccc(-c2csc(/C(C#N)=C\c3ccc(C(C)C)cc3)n2)cc1`: -1.62%. Consider `COCCN1C(=O)/C(=C/c2ccc(O)c(OC)c2)S/C1=N\c1ccccc1`, for which the “% Inhibition @ 10 uM” value is on record as 10.3%. With `O=C(CSc1ccc(-c2cccs2)nn1)NC1CCCCC1`, the “% Inhibition @ 10 uM” value is 1.68%.

Regarding `Cc1ccc(-c2nnc(N3CCN(S(=O)(=O)c4ccc(F)cc4)CC3)c3ccccc23)cc1`, the “% Inhibition @ 10 uM” value is reported as -0.958%.

As for `O=C(NCc1ccc2c(c1)OCO2)c1noc2c1COc1ccccc1-2`, the “% Inhibition @ 10 uM” value is reported as 73.5%. As for `c1ccc(-n2ncc3c(NCc4ccc5c(c4)OCO5)ncnc32)cc1`, the “% Inhibition @ 10 uM” value is -3.56%. In the case of `Cc1cc(C)nc(NS(=O)(=O)c2ccc(NC(=O)c3ccc(C)c(Br)c3)cc2)n1` it was -3.45%. In the case of `Cc1nc(O)nc(O)c1S(=O)(=O)N1CCC(C(N)=O)(N2CCCCC2)CC1` it was 2.8%; in that of `Cc1c(C(=O)NCCc2ccccc2)oc2ccc3c(c12)C=CC(C)(C)O3`, -10.9%; in that of `NS(=O)(=O)c1ccc(CCNS(=O)(=O)c2ccc(-c3cc(C(F)(F)F)no3)s2)cc1`, 2.41%.

For `CN1CCC(N[C@H]2CCCCNC2=O)CC1`, the “% Inhibition @ 10 uM” value is -3.82%.

In the case of `Cc1ccc(Cn2cc(/C=C3/NC(=O)NC3=O)c3ccccc32)cc1`, the “% Inhibition @ 10 uM” value is reported as 1.52%. In the case of `CCC(=O)N(/C=C1\Sc2ccccc2C1=O)Cc1ccccc1` it was 20.7%.

Turning to `O=C(Cn1ncn2nc(-c3cccs3)cc2c1=O)N1CCC(Cc2ccccc2)CC1`, the “% Inhibition @ 10 uM” value turned out to be 0.623%.

`Cc1nc(Cn2c(C)nc3ccccc32)cs1`: the “% Inhibition @ 10 uM” value is reported as -4.58%.

For the compound `O=C(COc1cccc(Cl)c1)Nc1cccc(C(F)(F)F)c1`, the “% Inhibition @ 10 uM” value came to 3.65%. In the case of `COc1ccc(CCNC(=O)c2cnc(SC)nc2C)cc1OC` it was -1.08%; in that of `O=C(Nc1ccccc1)c1cc(S(=O)(=O)N2CCOCC2)cs1`, 5.31%; in that of `COC(=O)c1cc(-c2ccccc2)n(C)c1C`, 3.3%.

Regarding `COc1ccccc1NS(=O)(=O)c1ccc(NC(=O)COc2ccc(Cl)cc2Cl)cc1`, the “% Inhibition @ 10 uM” value is -2.74%. For `Cc1nnc(N2CCCC(C(=O)N3CCc4ccccc4C3)C2)c2nn(-c3ccccc3)c(C)c12` (stereo not shown), the “% Inhibition @ 10 uM” value came to 9.35%. In the case of `Cc1ccc(CNS(=O)(=O)c2ccc(-c3cc(C(F)(F)F)no3)s2)o1` it was 5.67%; in that of `CCN(CC)CCNC(=O)/C(=C/c1cn(CC)c2ccccc12)NC(=O)c1ccccc1OC`, -1.74%; in that of `CC(C)(C)NCC(=O)Nc1c2c(nc3ccccc13)N(Cc1ccccc1)CC2`, 4.15%. For `COc1cccc(OC)c1C(=O)Nc1cc(C)on1`, the “% Inhibition @ 10 uM” value is listed as -5.14%. In the case of `Cc1ccc(CNC(=O)CSc2c3c(nc4ccc(Cl)cc24)CCCC3)o1`, the “% Inhibition @ 10 uM” value is recorded as -8.9%. The same measure for `O=[N+]([O-])c1cccc(-c2cn3ccsc3n2)c1`: 1.66%; for `Cc1sc(NC(=O)c2ccc(Cl)cc2)c(C(N)=O)c1-c1ccccc1`: 5.24%; for `O=S(=O)(c1ccc2oc3ccc(S(=O)(=O)N4CCCCCC4)cc3c2c1)N1CCCCCC1`: 1.94%. As to `COc1ccc(-c2cc(C(F)(F)F)nc(SCC(=O)Nc3cc(C)on3)n2)cc1`, the “% Inhibition @ 10 uM” value was -2.09%. As for `CN1C(=O)NC(=O)/C(=C\C=C\c2ccco2)C1=O`, the “% Inhibition @ 10 uM” value is -2.97% and 0.587%.

For `Cc1ccc(S(=O)(=O)N(CC(=O)N(C)Cc2ccccc2)c2ccccc2)cc1`, the “% Inhibition @ 10 uM” value was -2.44%. For `COc1cc(NCc2ccccc2C(F)(F)F)cc(OC)c1OC`, the “% Inhibition @ 10 uM” value is on record as 1.57%. The same measure for `Cc1ccc(-n2nc(C)c3c(C(=O)NCc4cccnc4)cc(C)nc32)cc1`: 2.19%.

As to `CCC(C)NC(=O)Cn1nc(-c2ccccc2)ccc1=O` (stereo not shown), the “% Inhibition @ 10 uM” value is -3.22%. The same measure for `COC(=O)c1sccc1NC(=O)CC#N`: 0.351%; for `CC(C)CNC(=O)C(=O)NCc1ccc(Cl)cc1`: 2.94%; for `C=CCNS(=O)(=O)c1cccc2nonc12`: 0.611%.

For the compound `CCc1ccc(-n2nc(C)c3c(C)cc(O)nc32)cc1`, the “% Inhibition @ 10 uM” value worked out at 3.36%. As to `CCOC(=O)N1CCC(NC(=O)Cn2ncn3c(cc4sc(CC)cc43)c2=O)CC1`, the “% Inhibition @ 10 uM” value is listed as -7.22%.
